The values that follow come from article PMC9911399, “Two distinct binding modes provide the RNA-binding protein RbFox with extraordinary sequence specificity”.

Substitutions are numbered along the chain they refer to; changes in the protein carry UniProt numbers. This is one part of the list.

To fix the notation:
T1: RBFOX1 RRM RbFoxmut (Fox-RRM*) (Homo sapiens, UniProt Q9NWB1 109-208, R118D;E147R;N151S;E152T)
T1 sequence: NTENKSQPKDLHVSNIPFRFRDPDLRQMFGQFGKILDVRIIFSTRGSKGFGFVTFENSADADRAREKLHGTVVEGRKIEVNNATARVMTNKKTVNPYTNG

B1: GAUGGUG (DNA:RNA)
RNA: GGGAGACCGGAAUUCAGAUUGUCCGAUGGUGUUAAAUCCCGUCGUAGCCACCA
DNA 1: CAATCTGAATTCCGGTCTCCC
DNA 2: TGGTGGCTACGACGGGATT
B2: GUGCGAA (DNA:RNA)
RNA: B1 RNA with A26U, U27G, G28C, U30A, G31A
DNA 1: CAATCTGAATTCCGGTCTCCC
DNA 2: TGGTGGCTACGACGGGATT
B3: ACAACGC (DNA:RNA)
RNA: GGGAGACCGGAAUUCAGAUUGUCCACAACGCUUAAAUCCCGUCGUAGCCACCA
DNA 1: CAATCTGAATTCCGGTCTCCC
DNA 2: TGGTGGCTACGACGGGATT
B4: CAACCAC (DNA:RNA)
RNA: B3 RNA with A25C, C26A, A28C, G30A
DNA 1: CAATCTGAATTCCGGTCTCCC
DNA 2: TGGTGGCTACGACGGGATT
B5: CGGCGAG (DNA:RNA)
RNA: B1 RNA with G25C, A26G, U27G, G28C, U30A
DNA 1: CAATCTGAATTCCGGTCTCCC
DNA 2: TGGTGGCTACGACGGGATT
B6: UCUUGAU (DNA:RNA)
RNA: B1 RNA with G25U, A26C, G28U, U30A, G31U
DNA 1: CAATCTGAATTCCGGTCTCCC
DNA 2: TGGTGGCTACGACGGGATT
B7: ACGGAUG (DNA:RNA)
RNA: B1 RNA with G25A, A26C, U27G, G29A
DNA 1: CAATCTGAATTCCGGTCTCCC
DNA 2: TGGTGGCTACGACGGGATT
B8: CUAAUCC (DNA:RNA)
RNA: B3 RNA with A25C, C26U, C29U, G30C
DNA 1: CAATCTGAATTCCGGTCTCCC
DNA 2: TGGTGGCTACGACGGGATT
B9: UUGAUCC (DNA:RNA)
RNA: B3 RNA with A25U, C26U, A27G, C29U, G30C
DNA 1: CAATCTGAATTCCGGTCTCCC
DNA 2: TGGTGGCTACGACGGGATT
B10: GAGGAGU (DNA:RNA)
RNA: B1 RNA with U27G, G29A, U30G, G31U
DNA 1: CAATCTGAATTCCGGTCTCCC
DNA 2: TGGTGGCTACGACGGGATT
B11: UUUGAAA (DNA:RNA)
RNA: B1 RNA with G25U, A26U, G29A, U30A, G31A
DNA 1: CAATCTGAATTCCGGTCTCCC
DNA 2: TGGTGGCTACGACGGGATT
B12: CUAGCGC (DNA:RNA)
RNA: B3 RNA with A25C, C26U, A28G
DNA 1: CAATCTGAATTCCGGTCTCCC
DNA 2: TGGTGGCTACGACGGGATT
B13: CAUUAAU (DNA:RNA)
RNA: B1 RNA with G25C, G28U, G29A, U30A, G31U
DNA 1: CAATCTGAATTCCGGTCTCCC
DNA 2: TGGTGGCTACGACGGGATT
B14: CUUAGGC (DNA:RNA)
RNA: B3 RNA with A25C, C26U, A27U, C29G
DNA 1: CAATCTGAATTCCGGTCTCCC
DNA 2: TGGTGGCTACGACGGGATT
B15: AGCGGCA (DNA:RNA)
RNA: B1 RNA with G25A, A26G, U27C, U30C, G31A
DNA 1: CAATCTGAATTCCGGTCTCCC
DNA 2: TGGTGGCTACGACGGGATT
B16: ACAAGGC (DNA:RNA)
RNA: B3 RNA with C29G
DNA 1: CAATCTGAATTCCGGTCTCCC
DNA 2: TGGTGGCTACGACGGGATT
B17: GAUCGUA (DNA:RNA)
RNA: B1 RNA with G28C, G31A
DNA 1: CAATCTGAATTCCGGTCTCCC
DNA 2: TGGTGGCTACGACGGGATT
B18: CGCAUAU (DNA:RNA)
RNA: B3 RNA with A25C, C26G, A27C, C29U, G30A, C31U
DNA 1: CAATCTGAATTCCGGTCTCCC
DNA 2: TGGTGGCTACGACGGGATT
B19: AGAAGCA (DNA:RNA)
RNA: B3 RNA with C26G, C29G, G30C, C31A
DNA 1: CAATCTGAATTCCGGTCTCCC
DNA 2: TGGTGGCTACGACGGGATT
B20: UAGUAUA (DNA:RNA)
RNA: B1 RNA with G25U, U27G, G28U, G29A, G31A
DNA 1: CAATCTGAATTCCGGTCTCCC
DNA 2: TGGTGGCTACGACGGGATT
B21: UAUAGGA (DNA:RNA)
RNA: B1 RNA with G25U, G28A, U30G, G31A
DNA 1: CAATCTGAATTCCGGTCTCCC
DNA 2: TGGTGGCTACGACGGGATT
B22: AGUUCAA (DNA:RNA)
RNA: B3 RNA with C26G, A27U, A28U, G30A, C31A
DNA 1: CAATCTGAATTCCGGTCTCCC
DNA 2: TGGTGGCTACGACGGGATT
B23: UUCCUCU (DNA:RNA)
RNA: GGGAGACCGGAAUUCAGAUUGUCCUUCCUCUUUAAAUCCCGUCGUAGCCACCA
DNA 1: CAATCTGAATTCCGGTCTCCC
DNA 2: TGGTGGCTACGACGGGATT
B24: AGGGGAG (DNA:RNA)
RNA: B1 RNA with G25A, A26G, U27G, U30A
DNA 1: CAATCTGAATTCCGGTCTCCC
DNA 2: TGGTGGCTACGACGGGATT
B25: UUGUCCC (DNA:RNA)
RNA: B23 RNA with C27G, C28U, U29C, U31C
DNA 1: CAATCTGAATTCCGGTCTCCC
DNA 2: TGGTGGCTACGACGGGATT
B26: AACUGAA (DNA:RNA)
RNA: B1 RNA with G25A, U27C, G28U, U30A, G31A
DNA 1: CAATCTGAATTCCGGTCTCCC
DNA 2: TGGTGGCTACGACGGGATT
B27: GGUUCUU (DNA:RNA)
RNA: B1 RNA with A26G, G28U, G29C, G31U
DNA 1: CAATCTGAATTCCGGTCTCCC
DNA 2: TGGTGGCTACGACGGGATT
B28: AGCACGG (DNA:RNA)
RNA: B3 RNA with C26G, A27C, C31G
DNA 1: CAATCTGAATTCCGGTCTCCC
DNA 2: TGGTGGCTACGACGGGATT
B29: UAUAAUA (DNA:RNA)
RNA: B1 RNA with G25U, G28A, G29A, G31A
DNA 1: CAATCTGAATTCCGGTCTCCC
DNA 2: TGGTGGCTACGACGGGATT
B30: CGAACGG (DNA:RNA)
RNA: B3 RNA with A25C, C26G, C31G
DNA 1: CAATCTGAATTCCGGTCTCCC
DNA 2: TGGTGGCTACGACGGGATT
B31: UGUGCCA (DNA:RNA)
RNA: B1 RNA with G25U, A26G, G29C, U30C, G31A
DNA 1: CAATCTGAATTCCGGTCTCCC
DNA 2: TGGTGGCTACGACGGGATT

This test deals with T1, RBFOX1 RRM RbFoxmut (Fox-RRM*). Description: EMSA; HiTS-Eq, 1 nM pool, 10 min; buffer printed only for the single-RNA assays: 10 mM Tris pH 7.5, 150 mM NaCl, 3.4 mM EDTA, 0.001% NP-40, 30 C. The conditions noted are these: tags: His6 N-terminal (pET28a); label: 5' 32P. The procedure, abridged:
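A pool of RNA with 7 randomized nucleotides, 5′-radiolabelled and with DNA-annealed flanks, was equilibrated at 1 nM for 10 min in 50 µL with purified RbFox RRM, wild type or mutant, across increasing protein concentrations. Free RNA was separated by 8% native PAGE, excised, reverse-transcribed, barcoded by PCR and sequenced. Relative association constants were obtained from read-count changes of each RNA species versus the control reaction and normalised to the cognate motif.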
On the technique in general: A gel shift assay detects complexes by their altered migration in electrophoresis.
For B1, the binding signal was 0.118 KA relative to UGCAUGU.
The result for B2 reads 0.129 KA relative to UGCAUGU; that for B3, 0.073 KA relative to UGCAUGU.
The result for B4 reads 0.11 KA relative to UGCAUGU.
With B5 the figure was 0.119 KA relative to UGCAUGU; with B6, 0.0987 KA relative to UGCAUGU; with B7, 0.141 KA relative to UGCAUGU.
With B8, the binding signal was 0.0531 KA relative to UGCAUGU.
The result for B9 reads 0.0834 KA relative to UGCAUGU.
With B10 the figure was 0.109 KA relative to UGCAUGU.
The result for B11 reads 0.0685 KA relative to UGCAUGU.
With B12, the binding signal is 0.0883 KA relative to UGCAUGU.
With B13 the figure was 0.113 KA relative to UGCAUGU; with B14, 0.101 KA relative to UGCAUGU; with B15, 0.113 KA relative to UGCAUGU.
In the case of B16, the binding signal was 0.103 KA relative to UGCAUGU.
In the case of B17, the binding signal is 0.142 KA relative to UGCAUGU.
With B18, the binding signal was 0.138 KA relative to UGCAUGU.
With B19 the figure was 0.124 KA relative to UGCAUGU.
With B20 the figure was 0.142 KA relative to UGCAUGU; with B21, 0.0839 KA relative to UGCAUGU; with B22, 0.0774 KA relative to UGCAUGU.
B23: the binding signal is 0.0669 KA relative to UGCAUGU.
As to B24, the binding signal is 0.149 KA relative to UGCAUGU.
The result for B25 reads 0.0731 KA relative to UGCAUGU.
The result for B26 reads 0.0595 KA relative to UGCAUGU.
Consider B27, for which the binding signal was 0.0681 KA relative to UGCAUGU.
With B28 the figure was 0.216 KA relative to UGCAUGU.
Regarding B29, the binding signal is 0.0938 KA relative to UGCAUGU.
With B30 the figure was 0.162 KA relative to UGCAUGU; with B31, 0.101 KA relative to UGCAUGU.
